Tested on: GAL4 responsive reporter gene
Test: Rapamycin-induced expression of stably integrated GAL4-responsive SEAP reporter in transfected HT1080 B cells
Type: cell-based
Conditions: cells expressing GF1 and a limited amount of RLS, 10 nM rapamycin

B1: L: E. coli lactose repressor, amino acids 46-360 (protein, UniProt P03023 46-360, looked up, fragment)
chain: NYIPNRVAQQLAGKQSLLIGVATSSLALHAPSQIVAAIKSRADQLGASVVVSMVERSGVEACKAAVHNLLAQRVSGLIINYPLDDQDAIAVEAACTNVPALFLDVSDQTPINSIIFSHEDGTRLGVEHLVALGHQQIALLAGPLSSVSARLRLAGWHKYLTRNQIQPIAEREGDWSAMSGFQQTMQMLNEGIVPTAMLVANDQMALGAMRAITESGLRVGADISVVGYDDTEDSSCYIPPLTTIKQDFRLLGQTSVDRLLQLSQGQAVKGNQLLPVSLVKRKTTLAPNTQTASPRALADSLMQLARQVSRLESGQ
  effect of co-expressed excess protein on rapamycin-induced reporter gene expression: inhibits rapamycin-induced reporter gene expression
